{"source": "PubChem BioAssay AID652106", "about": "(National Center for Advancing Translational Sciences (NCATS), 2013)", "note": "The campaign covered roughly 370,000 compounds. About 500 (0.14%) were called active. This list was built around the results that the source calls inconclusive (neither active nor inactive); the mix of calls is not that of the screen. The call rests on the fitted dose curve; in most records, active means well fitted activation curve with a large enough effect; inconclusive means small, poorly fitted or top-dose-only effect; inactive means no such curve, though single readings can be large or run the other way. Potencies of inconclusive entries are left out as doubtful fits. Potency means the concentration at half of the fitted maximal effect; tags describe the fitted curve by direction and shape."}
{"assay": "qHTS of alpha-syn Inhibitors; further: nearly all actives have a fitted effect of over 65% in size; on growth rescue (activation): % of control where 0% means no effect", "conditions": "Yeast expressing alpha-synuclein, BacTiter-Glo, 24 h; Potency: growth rescue unless noted; growth rescue (activation): at 46.1 µM (top of the series) unless noted", "outline": "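Readout is rescue of growth in alpha-synuclein-expressing yeast, so inhibitors of toxicity appear as activators. Growth after 24 hr at 30 deg C in galactose medium is quantified by luminescence.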"}
{"smiles": "O=[N+]([O-])c1ccc([N+](=O)[O-])c(Nc2ccc(N3CCOCC3)cc2)c1", "Potency": "inconclusive [activator, single point]"}
{"smiles": "O=C(Cc1ccccc1)NNC(=O)C1CC=CCC1", "note": "(stereo unspecified)", "growth rescue (activation)": "inactive: 5.15%"}
{"smiles": "C/C=C(/C(=C/C)c1ccc(O)cc1)c1ccc(O)cc1", "Potency": "inconclusive [activator, partial curve]"}
{"smiles": "Cc1cc(CCN2CCC(=O)NC2=S)ccc1OC(C)C", "Potency": "inconclusive [activator, single point]"}
{"smiles": "CC[C@@]12C(=O)N(c3cccc(F)c3)C(=O)N1[C@H](c1ccc(F)cc1)[C@@H]1C(=O)N(C3CCCCC3)C(=O)[C@@H]12", "Potency": "inconclusive [activator, single point]"}
{"smiles": "Cc1ccc(Cl)cc1N1CCN(C(=O)Cn2cnc3onc(-c4ccc(F)cc4)c3c2=O)CC1", "Potency": "inconclusive [activator, single point]"}
{"smiles": "Cc1ccc(S(=O)(=O)N2[C@@H](c3ccc(F)cc3)C(C(=O)O)=CC[C@H]2c2cccc(C)c2)cc1", "growth rescue (activation)": "inactive: 1.84%"}
{"smiles": "COC(=O)c1nn(C23CC4CC(CC(C4)C2)C3)c2c1C(=O)N(c1ccc(Br)cc1)C2=O", "growth rescue (activation)": "inactive: -2.32%"}
{"smiles": "CC(C)OC(=O)CC(=O)c1sc2nc3c(cc2c1N)CN(C)CC3", "growth rescue (activation)": "inactive: -1.96%"}
{"smiles": "COc1cc(Cn2c(=O)oc3ccc(C)cc32)ccc1OCCC(C)C", "Potency": "inconclusive [activator, single point]"}
{"smiles": "N/C(=N\\OC(=O)c1cccc([N+](=O)[O-])c1)c1ccccn1", "growth rescue (activation)": "inactive: 0.725%"}
{"smiles": "Nc1nc(NCCN2CCOCC2)nc(NCc2ccccc2)c1[N+](=O)[O-]", "growth rescue (activation)": "inactive: 5.97%"}
{"smiles": "COC(=O)[C@]12CCCCC=C1N(Cc1ccc(Cl)cc1Cl)C(=O)[C@H](CC(=O)NCC1CCCCC1)C2", "Potency": "inconclusive [activator, single point]"}
{"smiles": "COc1ccccc1CNC(=O)c1cc(-c2cc(F)ccc2OC(C)C)n[nH]1", "growth rescue (activation)": "inactive: 15.3%"}
{"smiles": "O=C(CSc1nnnn1C1CCCCC1)Nc1ccc(F)cc1", "growth rescue (activation)": "inactive: 1.84%"}
{"smiles": "COc1cc(C(=O)NCC2(N(C)C)CCCCC2)ccc1OCc1ccccc1", "Potency": "inconclusive [activator, single point]"}
{"smiles": "O=C(COC(=O)c1ccc([N+](=O)[O-])o1)Nc1ccc(F)cc1", "growth rescue (activation)": "inactive: -7.31%"}
{"smiles": "N#CCCN(Cc1cccnc1)C(=O)c1sc2cc(F)ccc2c1Cl", "growth rescue (activation)": "inactive: 24.3%"}
{"smiles": "O=C(Nc1nc(NC(=O)c2ccco2)n(-c2ccccc2)n1)c1ccccc1", "Potency": "inconclusive [activator, single point]"}
{"smiles": "CS(=O)(=O)N(CC(=O)Nc1ccccc1Sc1ccccc1)c1ccc(F)cc1", "growth rescue (activation)": "inactive: 7.72%"}
{"smiles": "O=C(Cc1ccsc1)N1CCc2c([nH]c3ccccc23)C1c1ccccn1", "note": "(stereo unspecified)", "Potency": "inconclusive [activator, single point]"}
{"smiles": "COc1cc(C)cc(C(=O)C=Cc2ccccc2)c1O", "Potency": "inconclusive [activator, single point]"}
{"smiles": "CC1CCCCN1S(=O)(=O)c1ccc(S(=O)(=O)N2CCN(c3ccc(F)cc3)CC2)cc1", "note": "(stereo unspecified)", "Potency": "inconclusive [activator, single point]"}
{"smiles": "O=C(c1cc2c(s1)-c1ccccc1OC2)N1CCN(c2ccccn2)CC1", "Potency": "inconclusive [activator, single point]"}
{"smiles": "COc1ccc(C)cc1Nc1n[n+](-c2ccccc2)c(-c2cccc(Cl)c2Cl)s1", "Potency": "inconclusive [activator, single point]"}
{"smiles": "c1csc(CN2CCOCC2)c1", "growth rescue (activation)": "inactive: -0.676%"}
{"smiles": "O=C(CCc1ccccc1)NCCCN1CCOCC1", "growth rescue (activation)": "inactive: 0.276%"}
{"smiles": "CCOC(=O)c1c(-c2ccsc2)csc1N", "Potency": "inconclusive [activator, single point]"}
{"smiles": "COc1ccc(NC(=O)CSCC(=O)N2CCN(c3cccc(C(F)(F)F)c3)CC2)cc1", "Potency": "inconclusive [activator, single point]"}
{"smiles": "O=C(Cc1cccs1)NCCSc1c(-c2ccc(Cl)cc2)[nH]c2ccccc12", "Potency": "inconclusive [activator, partial curve]"}
{"smiles": "CCCCC[n+]1cccc2c3ccccc3ccc21", "Potency": "inconclusive [activator, single point]"}
{"smiles": "O=C1CC(c2cc(F)ccc2F)c2cc3c(cc2N1)CCC3", "note": "(stereo unspecified)", "Potency": "inconclusive [activator, full curve]"}
{"smiles": "CC(=O)Nc1ccc(NC(=S)NC(=O)/C=C/c2ccco2)cc1", "growth rescue (activation)": "inactive: -3.9%"}
{"smiles": "COc1ccc(Cc2nnc(-c3ccccc3)o2)cc1", "Potency": "inconclusive [activator, single point]"}
{"smiles": "O=S(=O)(c1ccc2ccccc2c1)N1CCOCC1", "Potency": "inconclusive [activator, single point]"}
{"smiles": "O=C(NCCCn1ccnc1)C1CCCN(S(=O)(=O)c2ccc(F)cc2)C1", "note": "(stereo unspecified)", "Potency": "inconclusive [activator, single point]"}
{"smiles": "O=C(CS(=O)(=O)Cc1ccccc1)Nc1ccc(Cl)cn1", "Potency": "inconclusive [activator, single point]"}
{"smiles": "O=[N+]([O-])c1ccccc1S(=O)(=O)N1CCN(c2ccccc2)CC1", "Potency": "inconclusive [activator, single point]"}
{"smiles": "Cc1ccc(C(=O)OCC(=O)Nc2cc(C(C)(C)C)no2)c(C)c1", "growth rescue (activation)": "inactive: 6.08%"}
{"smiles": "Cc1cc(/C=C\\c2ccccc2)nc2ccccc12", "Potency": "inconclusive [activator, single point]"}
{"smiles": "COc1ccc(CN2C(=O)C(CC(=O)NCCN3CCOCC3)CC(C(=O)N(C)C)=C2C)cc1", "note": "(stereo unspecified)", "Potency": "inconclusive [activator, single point]"}
{"smiles": "CCc1sc(C(=O)NCc2ccco2)cc1Br", "growth rescue (activation)": "inactive: -12.4%"}
{"smiles": "O=C(CSc1nc2c(c(=O)[nH]1)CCCC2)Nc1ccc(Cl)cc1F", "Potency": "inconclusive [activator, single point]"}
{"smiles": "Cc1ccc(C)c(NC(=O)C(OC(=O)c2cnc(C)cn2)c2ccccc2)c1", "note": "(stereo unspecified)", "growth rescue (activation)": "inactive: 4.13%"}
{"smiles": "CCOC(=O)c1ccc2c(c1)C1C=CCC1C(C(=O)OCC)N2", "note": "(stereo unspecified)", "Potency": "inconclusive [activator, single point]"}
{"smiles": "CC1=C(C(=O)OC(C)C)C(c2cccnc2)n2ncnc2N1", "note": "(stereo unspecified)", "Potency": "inconclusive [activator, single point]"}
